Hit rate of the full screen: of about 3,200 compounds, about 75 (2%) showed an effect of 50% or more. Some of the results follow.
The molecules below were run on T1, S. aureus MSSA476. Details: relative growth, OD600, TSB; 25 µM; inhibitor.
T1 construct: MSSA476
Set-up: species or system S. aureus MSSA476 (TSB) or V. cholerae SAD30 (LB); 384-well bacterial growth screen at 25 uM, OD600 relative to DMSO control

| SMILES | % of control remaining [%] |
| --- | --- |
| N#CC(=Cc1csc(COc2ccccc2)n1)C(N)=O [9-B12, 2-cyano-3-[2-(phenoxymethyl)-1,3-thiazol-4-yl]prop-2-enamide] | 100.974 |
| C=CC(=O)Nc1cn(CCC)cn1 [3-B10, N-(1-propyl-1H-imidazol-4-yl)prop-2-enamide] | 124.336 |
| O=C(CCl)Nc1ccc(F)c(F)c1F [4-M05, 2-chloro-N-(2,3,4-trifluorophenyl)acetamide] | 85.7551 |
| CN1C(=CC=C(C#N)C(=O)NCC2CCCO2)C(C)(C)c2ccccc21 (stereo not drawn) [8-M04, 2-cyano-N-[(oxolan-2-yl)methyl]-4-(1,3,3-trimethyl-2,3-dihydro-1H-indol-2-ylidene)but-2-enamide] | 149.046 |
| C=CC(=O)N1CC[C@H](NS(C)(=O)=O)C1 [2-H21, N-[(3S)-1-(prop-2-enoyl)pyrrolidin-3-yl]methanesulfonamide] | 109.661 |
| N#CC(=CC(Cl)=Cc1ccccc1)C(=O)NC1CCCCC1 [8-D17, 4-chloro-2-cyano-N-cyclohexyl-5-phenylpenta-2,4-dienamide] | 126.805 |
| C=CC(=O)NC1CCn2cccc2C1 (stereo not drawn) [3-N11, N-(5,6,7,8-tetrahydroindolizin-7-yl)prop-2-enamide] | 92.2943 |
| Cc1ccc(C=C(C#N)C(=O)Nc2ccc(C(=O)O)cc2)s1 [8-E04, 4-[2-cyano-3-(5-methylthiophen-2-yl)prop-2-enamido]benzoic acid] | 88.6307 |
| N#CCCN(Cc1ccco1)C(=O)CCl [5-D20, 2-chloro-N-(2-cyanoethyl)-N-[(furan-2-yl)methyl]acetamide] | 100.546 |
| C=CC(=O)NC1CCCN(C2CCCCC2)C1=O (stereo not drawn) [3-O18, N-(1-cyclohexyl-2-oxopiperidin-3-yl)prop-2-enamide] | 95.7771 |
| C=CC(=O)N1CCC(C(=O)Nc2c[nH]c(=O)c(C)c2)CC1 [3-J05, N-(5-methyl-6-oxo-1,6-dihydropyridin-3-yl)-1-(prop-2-enoyl)piperidine-4-carboxamide] | 92.2943 |
| N#CC(=Cc1cccnc1)C(=O)NCCc1ccccc1 [9-K14, 2-cyano-N-(2-phenylethyl)-3-(pyridin-3-yl)prop-2-enamide] | 104.869 |
| C=CC(=O)Nc1cc2c(cc1Sc1ccccc1)OCCO2 [1-M13, N-[7-(phenylsulfanyl)-2,3-dihydro-1,4-benzodioxin-6-yl]prop-2-enamide] | 113.934 |
| C=CC(=O)NCc1ccc(C(=O)N2CCCC(c3nnc[nH]3)C2)cc1 (stereo not drawn) [3-E19, N-({4-[3-(4H-1,2,4-triazol-3-yl)piperidine-1-carbonyl]phenyl}methyl)prop-2-enamide] | 115.977 |
| O=C(CCl)Cc1ccc(F)cc1F [10-G17, 1-chloro-3-(2,4-difluorophenyl)propan-2-one] | 129.688 |
| CC(Cl)C(=O)NCCS(=O)(=O)Nc1ccccn1 (stereo not drawn) [7-L05, 2-chloro-N-{2-[(pyridin-2-yl)sulfamoyl]ethyl}propanamide] | 99.529 |
| O=C(CCl)NCCCC1CCCCC1 [6-O05, 2-chloro-N-(3-cyclohexylpropyl)acetamide] | 75.4634 |
| C=CC(=O)NCc1ccc(S(=O)(=O)NC2CC2)cc1 [2-P19, N-{[4-(cyclopropylsulfamoyl)phenyl]methyl}prop-2-enamide] | 104.439 |
| CC(=O)Nc1cccc(N2C(=O)C=CC2=O)c1 [10-D09, N-[3-(2,5-dioxo-2,5-dihydro-1H-pyrrol-1-yl)phenyl]acetamide] | 117.5 |
| CN(C)c1ccc(C=C(C#N)C(=O)N2CCC2)cc1 [9-A14, 2-(azetidine-1-carbonyl)-3-[4-(dimethylamino)phenyl]prop-2-enenitrile] | 86.8914 |
| O=C(CCl)NC1CN(S(=O)(=O)c2ccc3c(c2)OCCO3)C1 [5-I16, 2-chloro-N-[1-(2,3-dihydro-1,4-benzodioxine-6-sulfonyl)azetidin-3-yl]acetamide] | 103.461 |
| C=CC(=O)NC1CCN(c2nc(C3CC3)cc(C(F)(F)F)n2)CC1 [1-L03, N-{1-[4-cyclopropyl-6-(trifluoromethyl)pyrimidin-2-yl]piperidin-4-yl}prop-2-enamide] | 108.308 |
| C=CC(=O)NCC(C)(C)c1coc(-c2ccccc2)n1 [3-A03, N-[2-methyl-2-(2-phenyl-1,3-oxazol-4-yl)propyl]prop-2-enamide] | 95.0805 |

| SMILES | % of control remaining [%] |
| --- | --- |
| Cc1c(NC(=O)C(C)Cl)c(=O)n(-c2ccccc2)n1C (stereo not drawn) [6-E06, 2-chloro-N-(1,5-dimethyl-3-oxo-2-phenyl-2,3-dihydro-1H-pyrazol-4-yl)propanamide] | 106.878 |
| N#CC(=Cc1ccc(N2CCCC2)cc1)C(=O)N1CCC(C(N)=O)CC1 [9-K12, 1-(2-cyano-2-{[4-(pyrrolidin-1-yl)phenyl]methylidene}acetyl)piperidine-4-carboxamide] | 96.1798 |
| C=CC(=O)N1CCC(NC(C)=O)C1 (stereo not drawn) [1-B19, N-[1-(prop-2-enoyl)pyrrolidin-3-yl]acetamide] | 126.242 |
| C=CC(=O)NCC1(c2ccnn2C)CC1 [2-P15, N-{[1-(1-methyl-1H-pyrazol-5-yl)cyclopropyl]methyl}prop-2-enamide] | 87.3803 |
| Cc1ccc(NC(=O)CCl)c([N+](=O)[O-])c1 [4-A07, 2-chloro-N-(4-methyl-2-nitrophenyl)acetamide] | 74.7022 |
| C=CC(=O)NC1Cc2ccccc2C1=O (stereo not drawn) [1-H21, N-(1-oxo-2,3-dihydro-1H-inden-2-yl)prop-2-enamide] | 91.7802 |
| O=C(CCl)N1c2ccccc2SCC1c1ccccc1 (stereo not drawn) [4-M18, 2-chloro-1-(3-phenyl-3,4-dihydro-2H-1,4-benzothiazin-4-yl)ethan-1-one] | 9.528 |
| C=CC(=O)N(C)Cc1nnc(C2CC2)n1C [2-H11, N-[(5-cyclopropyl-4-methyl-4H-1,2,4-triazol-3-yl)methyl]-N-methylprop-2-enamide] | 101.654 |
| C=CCNC(=O)C(C#N)=Cc1ccc(-c2ccc(F)cc2)o1 [8-L20, 2-cyano-3-[5-(4-fluorophenyl)furan-2-yl]-N-(prop-2-en-1-yl)prop-2-enamide] | 94.2739 |
| COc1ccc(N(CC(F)(F)F)C(=O)CCl)cc1 [4-C15, 2-chloro-N-(4-methoxyphenyl)-N-(2,2,2-trifluoroethyl)acetamide] | 118.152 |
| Cc1ccc(C=C(C#N)C(=O)N2CCCC2)cc1 [8-E17, 3-(4-methylphenyl)-2-(pyrrolidine-1-carbonyl)prop-2-enenitrile] | 102.573 |
| C=CC(=O)N1CCC(C(=O)NC(C)c2cccc(C(F)(F)F)c2)CC1 (stereo not drawn) [3-G13, 1-(prop-2-enoyl)-N-{1-[3-(trifluoromethyl)phenyl]ethyl}piperidine-4-carboxamide] | 98.9116 |
| CC(C)CN(C(=O)CCl)c1cnn(-c2ccccn2)c1 [5-A12, 2-chloro-N-(2-methylpropyl)-N-[1-(pyridin-2-yl)-1H-pyrazol-4-yl]acetamide] | 106.74 |
| C=CC(=O)N(CC)CC(=O)N1CCc2[nH]nc(C(F)(F)F)c2C1 [3-A14, N-ethyl-N-{2-oxo-2-[3-(trifluoromethyl)-1H,4H,5H,6H,7H-pyrazolo[4,3-c]pyridin-5-yl]ethyl}prop-2-enamide] | 101.35 |
| Cn1nccc1CN1C[C@@H](F)C[C@H]1CNC(=O)CCl [5-C04, 2-chloro-N-{[(2S,4S)-4-fluoro-1-[(1-methyl-1H-pyrazol-5-yl)methyl]pyrrolidin-2-yl]methyl}acetamide] | 95.4463 |
| Cc1ccc2sc(N(Cc3ccccc3)C(=O)CCl)nc2c1C [4-K06, N-benzyl-2-chloro-N-(4,5-dimethyl-1,3-benzothiazol-2-yl)acetamide] | 107.861 |
| C=CC(=O)N1CCN(C(=O)c2ccco2)CC1 [1-P11, 1-[4-(furan-2-carbonyl)piperazin-1-yl]prop-2-en-1-one] | 90.7253 |
| C=CC(=O)N1CCN(Cc2nc(C(C)C)no2)CC1 [3-G11, 1-(4-{[3-(propan-2-yl)-1,2,4-oxadiazol-5-yl]methyl}piperazin-1-yl)prop-2-en-1-one] | 105.181 |
| C=CC(=O)Nc1cc(S(=O)(=O)N(C)C)cc(C)c1C [1-K11, N-[5-(dimethylsulfamoyl)-2,3-dimethylphenyl]prop-2-enamide] | 124.835 |
| N#CC(=Cc1cccc(O)c1)C(=O)NCc1ccc(Cl)cc1 [8-P14, N-[(4-chlorophenyl)methyl]-2-cyano-3-(3-hydroxyphenyl)prop-2-enamide] | 115.187 |
| CC(Cl)C(=O)Nc1sc(-c2ccccc2)cc1C(N)=O (stereo not drawn) [4-H13, 2-(2-chloropropanamido)-5-phenylthiophene-3-carboxamide] | 58.3135 |
| COc1ccc(C(=O)CCl)c2c1C(=O)CO2 [10-N05, 7-(2-chloroacetyl)-4-methoxy-2,3-dihydro-1-benzofuran-3-one] | 95.3125 |

From publication PMC11995724, “Antibiotic target discovery by integrated phenotypic and activity-based profiling of electrophilic fragments” (Cell chemical biology, 2025)
